Source: the RNAGym collection of RNA variant scans (doi:10.1073/pnas.2313332121)
This sample is rich in variants without activity.

B1: TPR 5TU (parent)
chain: GGAUCUUCUCGAUCUAACAAAAAAGACAAAUCUGCCACAAAGCUUGAGAGCAUCUUCGGAUGCAGAGGCGGCAGCCUUCGGUGGCGCGAUAGCGCCAACGUUCUCAACUAUGACACGCAAAACGCGUGCUCCGUUGAAUGGAGUUUAUCAUG

Variants of: B1
Experiment: polymerase ribozyme fitness, log enrichment relative to wild type (log ratio); higher = more active; in vitro selection for triplet polymerase activity
In short: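 Streptavidin-bead capture of gel-excised extended constructs, followed by RT-PCR, closed a single triplicate in vitro selection round. That round began by annealing PCR-built, transcribed mutant libraries of each subunit of a heterodimeric triplet polymerase ribozyme with a biotinylated primer, the partner subunit and triplets, then incubating them frozen at −7 °C. After Illumina sequencing of inputs and outputs, genotypes needed ≥10 input reads and ≥1 read per output. Fitness is the base-2 logarithm of genotype enrichment over wild-type enrichment, using inverse-variance-weighted replicate averages.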

Variant | polymerase ribozyme fitness (log ratio)
A30U A64U | ≤ -4.2
A30C G141C | ≤ -4.2
A29C A47U A91U C93A A110C U111G U135A | ≤ -4.2
A29G A60C U61A C63U G68C U102G A110G U127A | ≤ -4.2
A29U U56A C63U U102C U127A G141C U151G | ≤ -4.2
A30G C87U A110U C131A G136U G141U | ≤ -4.2
A30C G42U C54U C63G G68A C93U A121G U145A | ≤ -4.2
A28U C32A C85A G141A | ≤ -4.2
A28U G83A | ≤ -4.2
A29C U44A C95G C114A | ≤ -4.2
A29C C36A G117U G140A | ≤ -4.2
A28U U77C | ≤ -4.2
A29G C57A G58U C95U C125G | ≤ -4.2
A29G A60G C95G C149G | ≤ -4.2
A29C G46C C79G A91U A107G U145G | ≤ -4.2
A29U C32A U90G G124C | ≤ -4.2
A29C U31G C87A U139G | ≤ -4.2
A30G G83A U102G A107U | ≤ -4.2
A30C A39G G68U U78G C95U A115C G143C | ≤ -4.2
A30G G50C C96A G141A | ≤ -4.2
A29U C57G A98G A107U G140A | ≤ -4.2
A29U U55A G58U G74U U82A A98C | ≤ -4.2
A29G A66G C87G U101G A107G A115G A119G A147C | ≤ -4.2
A29U U31G C36U C69G G84A | ≤ -4.2

Variant | polymerase ribozyme fitness (log ratio)
A29G C35G U56G G68A G81A C99A C114A G143C | ≤ -4.2
A30G A40G G80U A89C A91G G152U | ≤ -4.2
A29U G59C G88U C95G | ≤ -4.2
A29C A41U U56G C57A A73G U102C A142C | ≤ -4.2
A30U C51U A60G C95U U102G | ≤ -4.2
A28U G50C C79G G81U C87A U102G C103G G124C A137G | ≤ -4.2
A30G G42U A52C C57A C96A A120G | ≤ -4.2
A30C U53A U78G G84U | ≤ -4.2
A29C C36U G50C A64G U78G U82C G84A U90C G94U | ≤ -4.2
A30U A49U G84A A107U A121U G133C | ≤ -4.2
A28U C87U A119C A138U G140C | ≤ -4.2
A28U G46C C51G U61G C87G U102A A119U G128U A138C | ≤ -4.2
A29U G65A U104A C132G G133A | ≤ -4.2
A30U A64G U139G U144A | ≤ -4.2
A29G A30U U45A G68C C85A A91G A106U | ≤ -4.2
A29U C96A G124U C131U | ≤ -4.2
A29G A60C G80A A121U G141U | ≤ -4.2
A28U A41C C96A G141C | -4.02
A29U G59C C76U C85G A113G A138G | ≤ -4.2
A30G C93A | -3.95
A28U C36G A49C G67A | ≤ -4.2
A28U G42A U53A G71A C93G | ≤ -4.2
A29U G68A | ≤ -4.2
A30C G84U C85G | ≤ -4.2

Variant | polymerase ribozyme fitness (log ratio)
A30C C72G G86U A106G U144C C149G | ≤ -4.2
A30U A39C U61A G94C A121U C125U G141A | ≤ -4.2
A30U C35U G141U | ≤ -4.2
A29G A30G U55A G92U C116A A150C | ≤ -4.2
A30U C32U G48A C51U U56G C76U | ≤ -4.2
A30C A41G C76U G83A A89U G124A C131U C132G G143A U144A C149A | ≤ -4.2
A30C C43A C54G G94A A147C | ≤ -4.2
A29G G70A A120U G143A A150C | ≤ -4.2
A28U C54U U56A G94A C131G U151A | ≤ -4.2
A29U U56G G59C A97C | ≤ -4.2
A29U G48C A52C G58C U90G G141U A147C | ≤ -4.2
A30C A41G U44C G70U U78C C95G A119C | ≤ -4.2
A29C G88A | ≤ -4.2
A28U C57U G58U A60G C75A G124C C125U G136U U144C | ≤ -4.2
A29U A41C C51U G70A | ≤ -4.2
A30G U139C G141A G143U | ≤ -4.2
A29G U78G G84C | ≤ -4.2
A30G U55G C57A U77G G94U C108U | ≤ -4.2
A29U C93A A119U G128A | ≤ -4.2
A28U A49C A66G C93U A98G | ≤ -4.2
A29U G58C G84A C105U A113C | ≤ -4.2
A30G U33A A49C G59C G67U C93G C132U A147U | ≤ -4.2
A30G C63A A73G C108G C129G | ≤ -4.2
A29U G86U A147C | ≤ -4.2

Variant | polymerase ribozyme fitness (log ratio)
A28U C76G G92U | ≤ -4.2
A30C G46A | ≤ -4.2
A29U A91C C132U | ≤ -4.2
A28U C35U U44G G94A A120U C125U G141C | ≤ -4.2
A30C G92C G126A | ≤ -4.2
A29U C35U C69U G83U C105A C125U U144C | ≤ -4.2
A29G C132G | ≤ -4.2
A30C G84A A115C C149U | ≤ -4.2
A30G A40G A60U C118A | ≤ -4.2
A29C G59C A89U A97G G126A | ≤ -4.2
A30C U31C G59A C93U A106U | ≤ -4.2
A29G A49C A64G G83C C95U C108U C114G U135G G136U G152A | ≤ -4.2
A29G A47G G50C G70A G74A C85A C108G | ≤ -4.2
A30C G68A C87U A106U A120G | ≤ -4.2
A30G A40C A41G U45A U53A G71A G126C G136U | ≤ -4.2
A28U C32G A41C A49C C76U G86U U135A U139A U151G | ≤ -4.2
A29U A66G U78A C93G C99A | ≤ -4.2
A29U G84A G92C C116U U139A A142C | ≤ -4.2
A28U C43U U77C G83U | ≤ -4.2
A29U G71U C72U A89G C93A C118A U145A | ≤ -4.2
A30C C79A | ≤ -4.2
A30C C38A C54U A60G G84U G141A G143A | ≤ -4.2
A30C C79U G88A A110U | ≤ -4.2
A29U G48U C114U A150G | ≤ -4.2

Variant | polymerase ribozyme fitness (log ratio)
A30C G65A G67C G100A A119U | ≤ -4.2
A28U A49G C54A C93U U144C | ≤ -4.2
A28U G74A C85U A91U | ≤ -4.2
A30G A121U | -3.39
A29U U77A C96U G141C U145C | ≤ -4.2
A30C G48C G50U A98G A107G C118U A120C G141U | ≤ -4.2
A29U C76U G88U C95A U145C | ≤ -4.2
A29G C105G U146G | ≤ -4.2
A28U A66C U78G G84A C95G C105A C123A | ≤ -4.2
A29G G34A C35G C87U C95G | ≤ -4.2
A29U C35U U55A A64U G81C G92A U101G A110U | ≤ -4.2
A30C G128U G133C | ≤ -4.2
A29C G74C | ≤ -4.2
A29G C87A A110C G141U | ≤ -4.2
A29G G46C G67C A121U | ≤ -4.2
A30G A39C G50A A73G | ≤ -4.2
A28U C51U G68U G81U G92U C93A G126A U134G | ≤ -4.2
A28U C32U A37G G68U G86A | ≤ -4.2
A29G G58U C95A C99A G143U | ≤ -4.2
A30C C93U C108A G128C | ≤ -4.2
A28U C75U G84U G86A C93U A106G A113U | ≤ -4.2
A29U U111C C114G G140U | ≤ -4.2
A29U G50U A122C A142U | ≤ -4.2
A30G G42A A47C C95U A98C C116U G141C U144A | ≤ -4.2

Variant | polymerase ribozyme fitness (log ratio)
A30G U55A C79G G81A | ≤ -4.2
A28U A41C G42A C54U C57U C85G A106G A115U | ≤ -4.2
A29G U102G | ≤ -4.2
A28U A52U U53G G88C C108G | ≤ -4.2
A28U G59U C93U C114G | ≤ -4.2
A29U A41G C75U C123U G126A | ≤ -4.2
A29U U56A C93U A147U | ≤ -4.2
A30C U31C C32A G46C G50C G58U G88C U104C A122G | ≤ -4.2
A30C U33G C38A U53A U56A C85G G112C G117C | ≤ -4.2
A29G A47C U55G | ≤ -4.2
A30G U45A A106C U135G | -3.85
A30U A39G A98G C99U C105G | ≤ -4.2
A30U C54U C76G C99G C103A U134A | ≤ -4.2
A28U G83C U111A U145C | ≤ -4.2
A29C A52C U53A C54U C75G C129A | ≤ -4.2
A29U U102A | ≤ -4.2
A30C C57G C63U G65U C96U A97U | ≤ -4.2
A30U A64C U146C | ≤ -4.2
A29U G92A A142C | ≤ -4.2
A29C C96G | -4.15
A30C G86U | ≤ -4.2
A30C A40C U45G C76G C87U C116A C125A U148G | ≤ -4.2
A29G G42A G84U C87A G128A | ≤ -4.2
A30G U53C U90G A91U U134C | ≤ -4.2

Variant | polymerase ribozyme fitness (log ratio)
A29U U56A C85U | ≤ -4.2
A29G C43U U45A A52C C75G A91U A115G U151G | ≤ -4.2
A30U C51U G94U A107U G133U | ≤ -4.2
A30U A52G U53A U146G | ≤ -4.2
A30C C36A C79G C85G C103G G124A U135G | ≤ -4.2
A28U C75U | ≤ -4.2
A28U A121C | ≤ -4.2
A29U U61A G67U G68A G83U | ≤ -4.2
A28U C63A G84U C118U | ≤ -4.2
A29G C43U A66C C96U C103A | ≤ -4.2
A29U A91G C96G A107U U151C | ≤ -4.2
A30C C35U C54U C85U A121U | ≤ -4.2
A30G G42A | ≤ -4.2
A30C C85U A115U U145C | ≤ -4.2
A29U A39U U55A C79A C93G | ≤ -4.2
A28U C54G C72U | ≤ -4.2
A30U A41U G67C C96U C118G U135C | ≤ -4.2
A29U A41C A52C C87U U102C G136A G143C U146A | ≤ -4.2
A30C A73G U90G G124U G141C | ≤ -4.2
A30G C54G C63A A73C C95U G128A | ≤ -4.2
A29G U56A C76A C96G | ≤ -4.2
A29C A41C G62A G84A U90A C118G | ≤ -4.2
A30U A37U G59C C118G C123U | ≤ -4.2
